The campaign covered roughly 310,000 compounds. About 2,200 (0.71%) showed an effect of 50% or more. The effect is printed as a negative number. This is one part of the list.
target: human ether-à-go-go-related gene (hERG) potassium channel (human, UniProt Q12809); experiment: primary screen, population patch clamp on CHO cells stably expressing hERG
Sequence (Q12809 whole entry, looked up): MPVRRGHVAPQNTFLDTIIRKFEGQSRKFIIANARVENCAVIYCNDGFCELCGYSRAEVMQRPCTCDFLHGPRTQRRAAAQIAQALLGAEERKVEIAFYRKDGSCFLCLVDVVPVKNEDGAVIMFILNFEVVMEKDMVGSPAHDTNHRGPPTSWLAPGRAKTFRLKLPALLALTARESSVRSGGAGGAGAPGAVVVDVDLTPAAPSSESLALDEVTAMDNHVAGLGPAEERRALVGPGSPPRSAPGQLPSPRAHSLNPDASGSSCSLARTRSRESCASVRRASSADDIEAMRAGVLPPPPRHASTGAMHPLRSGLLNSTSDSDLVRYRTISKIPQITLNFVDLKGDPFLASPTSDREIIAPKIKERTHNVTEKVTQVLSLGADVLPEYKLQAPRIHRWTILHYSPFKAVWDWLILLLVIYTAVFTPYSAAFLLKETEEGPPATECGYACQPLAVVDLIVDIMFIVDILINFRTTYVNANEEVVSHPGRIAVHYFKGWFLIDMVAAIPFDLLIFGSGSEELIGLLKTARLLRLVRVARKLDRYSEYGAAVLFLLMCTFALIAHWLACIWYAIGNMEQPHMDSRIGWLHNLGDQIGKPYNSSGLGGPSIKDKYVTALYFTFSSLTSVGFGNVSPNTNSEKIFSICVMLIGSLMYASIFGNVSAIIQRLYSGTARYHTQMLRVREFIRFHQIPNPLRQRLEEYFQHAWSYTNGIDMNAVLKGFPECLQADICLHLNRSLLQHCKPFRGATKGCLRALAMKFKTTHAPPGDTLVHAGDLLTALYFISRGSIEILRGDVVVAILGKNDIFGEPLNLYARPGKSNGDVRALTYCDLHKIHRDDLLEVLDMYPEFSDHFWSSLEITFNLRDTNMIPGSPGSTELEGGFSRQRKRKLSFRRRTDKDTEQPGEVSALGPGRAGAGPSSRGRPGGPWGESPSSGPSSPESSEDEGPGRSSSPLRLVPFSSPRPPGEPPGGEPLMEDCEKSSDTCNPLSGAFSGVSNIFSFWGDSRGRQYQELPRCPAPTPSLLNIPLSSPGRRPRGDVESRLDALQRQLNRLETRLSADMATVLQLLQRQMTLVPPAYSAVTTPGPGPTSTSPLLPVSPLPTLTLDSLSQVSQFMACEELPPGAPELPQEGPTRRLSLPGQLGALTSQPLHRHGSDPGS

Structure (SMILES)	hERG current change (%, negative = inhibition) at 1uM [%]
CN1CCN(c2ccc(S(=O)(=O)N3CCOCC3)cc2NC(=O)CC(C)(C)C)CC1	13.2
NNC(=O)c1cccc(COCC(F)(F)C(F)F)c1	2.44
Cc1ccsc1CN1CC(=O)N(c2c(C)cccc2C)C1=S	6.37
CNc1c([N+](=O)[O-])cnn1-c1ccccc1F	15.3
Cl.N=c1ccn2c(n1)O[C@H]1[C@H](O)[C@@H](CO)O[C@H]12	15.1
N#CC1=C2N=C(N)c3ccccc3N2C2=C(C(=O)CCC2)C1c1ccccc1F (stereo not drawn)	7.74
Cc1ccc(NC(=O)CC2SC(=NC3CCCCC3)NC2=O)cc1 (stereo not drawn)	0.278
Cc1nn(Cc2c(F)c(F)c(F)c(F)c2F)c(C)c1NC(=O)c1ccc(COc2ccc(F)cc2)o1	3.61
O=c1[nH]c(=S)[nH]c2c1CN(Cc1ccc(F)cc1)CC2	11.2
O=C(COc1ccccc1)N/N=C/c1sc(=O)n(Cc2cccc(C(=O)O)c2)c1Cl	11.1
NS(=O)(=O)c1ccc(-n2nncc2-c2ccco2)cc1	14.4
CCOC(=O)C(C)Oc1cccc2c(=O)n(CC(=O)Nc3ccc4c(c3)OCCO4)ccc12 (stereo not drawn)	12.4
CCOC(=O)c1nn(-c2ccccc2)c(=O)c(C#N)c1C	9.51
COc1ccc(-n2ncc3c(N4CCN(c5cc(C)ccc5C)CC4)ncnc32)cc1	9.42
CCN(CC)C(=O)CSc1nnnn1-c1ccc(F)c(Cl)c1	-6.84
O=C(CNC(=O)c1ccccc1)N/N=C/c1ccccc1Cl	8.46
O=C(CCN1CCN(S(=O)(=O)c2cccc([N+](=O)[O-])c2)CC1)Nc1ccccc1F	16.8
NC(N)=NCc1cccc(I)c1.O=S(=O)(O)O	14.5
CCNS(=O)(=O)c1ccc2c3c(cccc13)C(=O)N2	7.71
CC(C)(C)OC(=O)N1CCC(NC(=O)c2ncn(Cc3ccccc3)c2C(=O)NC2CCN(C(=O)OC(C)(C)C)CC2)CC1	10.5
Cc1ncc(S(=O)(=O)c2ccc(Cl)cc2)c(N)n1	11.7
CCC(Sc1nc2c(c(=O)n1CC)SC(C)C2)C(=O)OC (stereo not drawn)	12.1

Structure (SMILES)	hERG current change (%, negative = inhibition) at 1uM [%]
Fc1ccccc1Cc1noc(CN2CCCC(CN3CCOCC3)C2)n1 (stereo not drawn)	5.99
Cc1ccc(S(=O)(=O)N2CCC(C(=O)N/N=C/c3ccccc3[N+](=O)[O-])CC2)cc1	13.4
CCC1SC(CC)C(=O)N(CC(=O)NCCc2ccccc2)C1=O (stereo not drawn)	3.16
CCOc1ccccc1N1CCN(C(=O)CNC(=O)c2ccc(OC)c(OC)c2)CC1	9.95
O=[N+]([O-])c1ccc2cn(-c3ccccc3)nc2c1	-2.39
Cc1c(C)n(CCN(C)C)c2ncnc(NCc3ccccc3)c12	-5.98
CCN(CC)C(=O)CSC(Nc1ccc(F)cc1)=C(C#N)C#N	10.4
Cc1ccc(NC(=O)Cn2c(=O)oc3ccccc32)cc1C	16.8
O=C(C1CC1)N1CCc2cc(Br)cc(S(=O)(=O)N3CCN(c4ccccn4)CC3)c21	6.85
Cc1ccnc(NC(=O)C(Cc2ccccc2)NC(=O)c2ccccc2)c1 (stereo not drawn)	7.92
COC(=O)CNC(=O)c1cc(-c2ccncc2)nc2ccc(C)cc12	5.69
COc1ccc(Nc2nccc(-c3ccc(C#N)cc3)n2)cc1	1.09
C=CCC1(O)C(=O)N2C(=C1C(=O)N1CCOCC1)c1ccccc1CC2(C)C (stereo not drawn)	5.55
O=C(c1ccc(OC2CCN(C/C=C/c3ccc(F)cc3)CC2)cc1)N1CCCC1	-74.9
CCOc1ccc(CCNC(=O)COC(=O)c2ccccc2O)cc1OCC	-1.08
COc1ccc(NC(=O)COc2ccc(C)c(C)c2)cc1S(=O)(=O)N1CCCCC1	2.14
CN(C(=O)CCc1nnc(CCCCc2ccccc2)o1)C1CCOCC1	7.66
Cn1nnnc1SCC(=O)NNC(=O)c1ccc(Br)cc1	17.6
CCc1ccc(N2C(=O)CN(CC(=O)OC)C2=S)cc1	17.4
CC[N+](C)(C)Cc1ccccc1Br.Cc1ccc(S(=O)(=O)[O-])cc1	9.07
O=[N+]([O-])c1ccccc1/C=C/CN1CCCCC1	3.97
CC(C(=O)N1CCOCC1)c1ccccc1 (stereo not drawn)	7.75

Structure (SMILES)	hERG current change (%, negative = inhibition) at 1uM [%]
CCC(C)C(=O)Nc1ccc(S(=O)(=O)N2CCCC2)cc1 (stereo not drawn)	15.3
Cc1[nH]c(C)c(S(=O)(=O)NCCc2ccccc2)c1C(=O)N1CCCCC1	7.49
CC(/C=C/c1ccc2c(c1)OCO2)=N\NC(=O)c1cccc([N+](=O)[O-])c1	5.1
NC(=O)[C@H](Cc1cc2ccccc2s1)NC(=O)[C@@H]1CC2(CC(c3cccc(NC(=O)[C@@H]4CCC(=O)N4)c3)=NO2)CN1C(=O)/C=C/c1c(F)cccc1Cl (stereo partly drawn)	7.81
O=C(COC(=O)CSc1ccc([N+](=O)[O-])cc1)NCc1cccs1	20.5
CN(C)C(=O)N1CCC(C(=O)NCc2cccs2)CC1	6.44
NS(=O)(=O)c1ccc(CCNC(=O)CCCC2=NS(=O)(=O)c3ccccc3N2)cc1	21.9
Cc1ccc(C(=O)NNC(=O)C(C)Sc2nc(N)cc(N)n2)cc1 (stereo not drawn)	1.28
CC(C)c1cc(O)c(-c2ccccc2)c(=O)n1-c1ccc(Cl)cc1	12.1
CC1C(=O)CC(c2ccccc2)N(C)C1c1ccccc1 (stereo not drawn)	2.89
CC12CN3CC(C)(CN(C1)C3c1ccc(Br)cc1)C2 (stereo not drawn)	-9.19
Cc1c(Cl)cccc1NC(=O)Nc1ccn(C)n1	5.82
O=C(CCC(=O)N/N=C/c1cc(Cl)cc(Cl)c1O)NCc1ccccc1	18.2
Fc1cccc(CSc2ccc(-c3ccco3)nn2)c1	8.16
Cc1ccc(S(=O)(=O)Cc2cc(F)c([N+](=O)[O-])cc2[N+](=O)[O-])cc1	13
COc1cccc(NC(=O)CSc2nnc(-c3ccc(C)cc3)o2)c1	6.82
Cc1cc(C)nc(NS(=O)(=O)c2ccc(NC(=O)c3ccc(S(=O)(=O)N4CCOCC4)cc3)cc2)n1	2.44
COc1ccc(CCNC(=O)CCNS(=O)(=O)c2cccc3nonc23)cc1OC	7.22
Cn1c(=O)[nH]c(=O)c2c1nc(SCC(O)CO)n2CCCc1ccccc1 (stereo not drawn)	13
O=C(O)CCNc1nc(C(F)(F)F)nc2ccccc12	16.4
O=C(c1ccccc1F)c1cn(Cc2ccc(F)cc2)c2ccccc12	11.7
S=c1[nH]nc(-c2ccc(Br)o2)n1Cc1ccccc1	7.85

Structure (SMILES)	hERG current change (%, negative = inhibition) at 1uM [%]
CCC(=O)N1CCc2cc(S(=O)(=O)NC(Cc3ccccc3)C(=O)O)ccc21 (stereo not drawn)	18
COc1ccc(-c2c(C#Cc3ccsc3)c3cc(Br)ccc3n2C)cc1	-6.65
CCOc1ccc(CC(=O)Nc2c(C(=O)Nc3ccccc3)oc3ccccc23)cc1OCC	-0.0444
Brc1ccccc1-n1nnc(-c2cnc3ccccc3c2)n1	12.7
CN(C(=O)COC(=O)c1ccccc1OCc1ccc(F)cc1)C1CCS(=O)(=O)C1 (stereo not drawn)	6.37
Cc1cc(=O)[nH]c(SCc2cccc(F)c2)n1	16.8
COc1ccc(CCNC(=O)c2c(C)cc(=O)oc2C)cc1OC	8.94
COC(=O)c1sc(NC(=S)NNC(=O)c2c(Br)c(C)nn2C)c(C(=O)OC)c1C	10.4
Cc1cccc(-c2n[nH]c(=S)n2Cc2ccccc2)c1	10.8
Cc1nc2ccc(S(=O)(=O)NCC(=O)NCCN3CCCCCC3)cc2s1	20.4
CCC1(c2ccccc2)NC(=O)N(CC(=O)N(C)CC(=O)Nc2cccc(OC)c2)C1=O (stereo not drawn)	14
C[N+]1(CCC(=O)c2ccccc2)CCCCC1.[I-]	7
COc1ccc(CCNC(=S)NC(=O)c2cccc(Cl)c2)cc1OC	6.74
CCOC(=O)c1ccc(N2C(=O)c3n[nH]c(C)c3C2c2ccc(OC)cc2OC)cc1 (stereo not drawn)	-0.35
Cc1c(Br)c(=O)oc2c(Br)c(O)ccc12	13.8
Cn1c2ccccc2c2cc(/C=N/NC(=O)c3ccc(O)cc3O)ccc21	6.69
COc1ccc(NC(=O)CN(C)S(=O)(=O)c2ccc(Cl)cc2)c([N+](=O)[O-])c1	5
COc1ccc2nc(NC(=O)C3CCCN(S(=O)(=O)c4cccs4)C3)sc2c1 (stereo not drawn)	15.7
CCCC(C)C(=O)Nc1ccc(NC(C)=O)cc1 (stereo not drawn)	12.5
Cn1c(=O)oc2cc(S(=O)(=O)NCCC(=O)NCCc3ccc(Cl)cc3)ccc21	-6.21
COc1ccc(CN2CCCN(S(=O)(=O)c3ccc(Br)cc3)CC2)cc1	-75.6
